Results: PubChem BioAssay AID445 (National Center for Advancing Translational Sciences (NCATS), 2006)
Hit rate of the full screen: of about 110,000 compounds, about 40 (0.04%) were called active. Inconclusive results, whose numbers are uncertain, are shown with a selection of clear calls. Calls come from the whole dose curve; as a rule, active = well fitted curve in the direction sought with a large enough effect in the signal ratio (not every such curve was filed as active); inconclusive = small, poorly fitted or top-dose-only effect, or a change in a side signal; inactive = flat fitted curve, though single readings scatter; the % refers to the signal ratio. Potencies beside an inconclusive call are fits to weak or partial responses and may not hold up.

Test: IkB Signaling
Details: ABC-DLBCL IkBa-CBG/CBR dual luciferase ratio (green luciferase fused to IkBa over red control in OCI-Ly3 lymphoma cells), 4 h; IkBa stabilization activation: at 57.1 µM (top of the series), scaled: untreated 0%, proteasome inhibitor 100% unless noted
Source text: NIH Molecular Libraries Screening Centers Network [MLSCN]
NIH Chemical Genomics Center [NCGC]
Nuclear factor kappa-B (NF-kappa-B) plays an important role in normal B cell development and survival. Diffuse large B cell lymphoma (DLBCL) is the most commonly observed type of non-Hodgkin's lymphoma. Gene expression analysis has identified an activated B cell-like subtype of DLBCL (ABC-DLBCL) which expresses known NF-kappa-B target genes. […] However, targets upstream of IKK have been largely unexplored and so nodes upstream of IKK in the NF-kappa-B pathway remain untested due to the lack of chemical probes.
A cell-sensor assay for I-kappa-B-alpha stabilization was developed with NIH investigator Dr. R. Eric Davis in Dr. Louis M. Staudt's laboratory. The assay uses green (CBG68) and red (CBR) emitting beetle luciferases [Chroma-Glo(TM) developed by Promega Corp.] where the green luciferase is fused to I-kappa-B-alpha and the red luciferase is present in its native state. Both luciferase genes are stably present in the OCI-Ly3 human ABC DLBCL cell line, but their expression is under the control of tetracycline-inducible promoters. Following the addition of doxycycline to induce expression of the luciferases, the green luminescence in control cultures rises only slowly because the CBG fusion partner I-kappa-B-alpha is targeted by IKK activity for rapid degradation. In contrast, green luminescence rises rapidly in the presence of proteasome inhibitors or IKK inhibitors. The rise in red luminescence of CBR is not affected by proteasome or IKK inhibitors, and serves as normalization for cell number and nonspecific effects. Compounds were screened as a concentration-titration series that ranged from 57 uM to 0.7 nM.
NCGC Assay Protocol Summary:
Cells were seeded in 1536-well plates at 5000 cells/3ul in IMDM medium containing 0.5% FBS, w/o phenol red, L-glutamine, 25 mM HEPES, 3 mg/ml sodium bicarbonate. After centrifugation for 1 min. at 1000 rpm, 23 nl of compounds or DMSO were delivered to each well using a pin tool. Then 1ul 80ng/ml doxycycline was dispensed into white solid 1536-well plates and the plates were incubated at 37C/5% C02 in a cell incubator for 4 hrs. Then 4 ul Chroma-Glo luminescent substrate mix (Promega) was added to each well. The plate was incubated at R.T. for 10-15 min. The plates were measured on a ViewLux plate reader for green luminescence (540/20 nm filter) and red luminescence (618/8 nm filter). The green and red luminescent signals were corrected for red and green luminescence filter overlap using previously determined filter calibration constants (determined using the procedure outlined in the Promega Technical Manual). The %Activity was determined from the ratio of corrected green/red luminescent values. Green luminescent and ratio %Activity was determined by normalizing to the difference in signal between basal cells (0% Activity) and cells incubated with 10 uM of the proteasome inhibitor MG-132 (100% Activity). Red luminescent %Activity was normalized to the difference between red luminesence in basal cells (0%Activity) and zero luminescence (-100% Activity).
Concentration-response curves were fitted to the signals arising from the green luminescence (I-kappa-B-alpha-luciferase fusion; IkB-luc) and the red luminescence (unfused luciferase; luc) as well as the calculated ratio. The concentration-effect curves were then classified based on curve quality (r2), response magnitude and degree of measured activity. Compounds were then categorized based on their concentration-response curves for all three datasets (Ikb-luc, luc and ratio).
Keywords: IKK, I-kappa-B, IkB, IkBa, cytotoxicity, luminescence, MLSMR, MLSCN, NIH Roadmap, qHTS, NCGC
Potency is the fitted concentration of half-maximal effect.

SMILES | IkBa stabilization activation | Potency
Cc1nc2c(C(=O)O)cnn2c(C)c1Cc1ccccc1 | inconclusive: 0.983% [signal inhibitor] | 
CCCc1nn2c(=O)cc(COC(=O)c3ccc(NC(=O)CCc4ccccc4)cc3)nc2s1 | inconclusive: 1.66% [signal inhibitor] | 
Cc1ccc2nc3ccc(N4CCN(C)CC4)nn3c(=O)c2c1 | inactive: -2.75% | 
Cc1c(NC(=O)C(C)OC(=O)c2cc3c4ccccc4n(C)c3s2)c(=O)n(-c2ccccc2)n1C (centres undefined) | inconclusive: 8.76% [signal inhibitor] | 
O=C(Nc1nnc(C(F)(F)F)s1)c1cccnc1 |  | inconclusive: 25.1 µM [signal inhibitor, partial curve]
COc1cccc(NC(=O)c2sc3nc4n(c(=O)c3c2C)CCC4)c1 | inactive: 1.13% | 
N#Cc1c(N)[nH]c(=S)c(C#N)c1-c1ccccc1 | inconclusive: 6.19% [signal inhibitor] | 
CCOc1ccc(C(=O)COC(=O)CC)cc1 | inactive: -0.0387% | 
Cc1cc(C)c2c(=O)[nH]c(SCC(=O)Nc3ccccc3)nc2n1 | inactive: 8.15% | 
O=C(NCCc1csc(-c2ccc(F)cc2)n1)c1cccs1 | inconclusive: 0.78% [signal inhibitor] | 
CCOC(=O)c1cc(-c2ccccc2)n(CC(=O)NC2CCC(C)CC2)c1C (centres undefined) | inconclusive: 1.14% [signal inhibitor] | 
Cc1c(NC(=O)Nc2ccc(Cl)c(Cl)c2)c(=O)n(-c2ccccc2)n1C | inconclusive: -2.75% [signal inhibitor] | 
Cc1ccc2c(c1)c(=O)c(C(=O)c1ccc3c(c1)OCO3)cn2Cc1cccc(F)c1 | inconclusive: 2.29% [signal inhibitor] | 
CCC(=O)n1nc(NCc2ccccc2OC)nc1NCc1ccccc1OC | inconclusive: 7.59% [signal inhibitor] | 
Cc1ccc(Cn2nnc3c(=O)n(Cc4cccc(C)c4)cnc32)cc1 | inconclusive: 3.24% [signal inhibitor] | 
Cc1ccc(N2C(=O)CS(=O)(=O)C23C(=O)N(C)c2ccccc23)cc1F (centres undefined) | inconclusive: 0.484% [signal inhibitor] | 
Cc1ccc(C)c(Nc2cc(C(=O)NCCCN(C)C3CCCCC3)c3ccccc3n2)c1 | inconclusive: 1.88% [signal inhibitor] | 
O=C(Cc1c[nH]c2ccccc12)Nc1nc2ccccc2[nH]1 |  | inconclusive: 25.1 µM [signal inhibitor, partial curve]
Cc1ccc(N2CCN(C(=O)c3c(C)oc4ncnc(N5CCOCC5)c34)CC2)c(C)c1 | inconclusive: -0.688% [signal inhibitor] | 
COc1cc(NC(=O)NCC2CCN(Cc3ccc(C)cc3)CC2)cc(OC)c1OC | inactive: 2.66% | 
CCNc1ncc2nc(-c3ccc(F)cc3)c(=O)n(CCC#N)c2n1 | inactive: -2.51% [at 11.4 µM, scaled: untreated 0%, proteasome inhibitor 100%] | 
Cc1ccc(C(=O)Nc2nnc(S(=O)(=O)N3CCN(c4ccc(F)cc4)CC3)s2)cc1 | inconclusive: -0.389% [signal inhibitor] | 
Cc1ccc(CN2CCCn3nc(C(=O)NCc4cc(C)ccc4C)cc3C2=O)cc1 | inconclusive: 7.11% [signal inhibitor] | 

SMILES | IkBa stabilization activation | Potency
Cc1ccc(CNC(=O)c2cnc3c(-c4ccccc4)c(C)nn3c2C)o1 | inconclusive: 2.89% [signal inhibitor] | 
Nc1ccc2nc(-c3ccc(O)cc3)sc2c1 | inconclusive: 14.3% [signal inhibitor] | 
Cc1ccc2scc(N3CCCCC3)c(=O)c2c1 | inactive: 30.6% | 
COc1ccc(NC(=O)CC2C(=O)N(c3ccc(F)cc3)C(=O)N2CCc2sccc2C)cc1 (centres undefined) | inconclusive: 0.524% [signal inhibitor] | 
CN(C)C(=O)c1ccc(-c2ccc3ncnc(NCc4cccs4)c3c2)cc1 | inactive: 1.7% [at 11.4 µM, scaled: untreated 0%, proteasome inhibitor 100%] | 
CCOc1ccc(Nc2ncnc3c2cnn3-c2ccc(F)cc2)cc1 | inconclusive: 2.86% [signal inhibitor] | 
Cc1nc2c(C(=O)NCc3ccccc3Cl)cnn2c(C)c1Cc1ccccc1 | inconclusive: 1.38% [signal inhibitor] | 
Cc1nc(N2CCCC2)ncc1C(=O)N1CCN(c2ccc(Cl)cc2)CC1 | inactive: 0.631% | 
Cc1ccc(C)c(-n2cc(-c3ccccc3)nc2SCC(=O)Nc2ccccc2)c1 | inconclusive: -0.257% [signal inhibitor] | 
COc1cccc(-c2csc(-c3c(N)c(C(=O)c4ccccc4)n4ccccc34)n2)c1 | inconclusive: -0.844% [signal inhibitor] | 
CCOC(=O)c1ccccc1NC(=O)Cn1c(=O)n(CCCC(=O)NCc2ccc3c(c2)OCO3)c(=O)c2ccccc21 | inconclusive: 16.8% [signal inhibitor] | 
CC12CC(NC(=O)N1c1ccc(C(=O)N3CCN(c4ccc(F)cc4)CC3)cc1)c1ccccc1O2 (centres undefined) | inconclusive: 1.31% [signal inhibitor] | 
Cc1ccc(Cl)cc1N1CCN(C(=O)CCS(=O)(=O)c2cccc3nonc23)CC1 | inconclusive: 1.22% [signal inhibitor] | 
CN(C)c1ncc2nc(-c3ccc(Cl)cc3)c(=O)n(CCC#N)c2n1 | inactive: 0.596% [at 11.4 µM, scaled: untreated 0%, proteasome inhibitor 100%] | 
CNc1nc(-c2cccc(C#N)c2)nc2ccccc12 | inactive: -2.91% [at 11.4 µM, scaled: untreated 0%, proteasome inhibitor 100%] | 
COc1ccc(NC(=O)C(C)n2nc(-c3cc(C)ccc3C)c3c(c2=O)CCCC3)cc1 (centres undefined) | inconclusive: 1.89% [signal inhibitor] | 
O=C(NCCc1ccccc1)C(=O)NCC(c1ccco1)S(=O)(=O)c1ccccc1 (centres undefined) | inactive: -1.39% | 
Cc1sc(NC(=O)c2ccc(Cl)s2)c(C(N)=O)c1C | inactive: 4.79% | 
Cc1ccc(C(=O)/C=C/Nc2ccccc2C(N)=O)o1 |  | inconclusive: 15.8 µM [signal inhibitor, partial curve]
COc1ccc(CNC(=O)c2ccc(CSc3nc4ccncc4n3Cc3ccccc3F)cc2)cc1 | inconclusive: 3.06% [signal inhibitor] | 
O=C(CSc1c2c(nc3cc(Cl)ccc13)CCCC2)N1CCN(c2ccccc2F)CC1 | inconclusive: 1.47% [signal inhibitor] | 
COc1ccccc1NC(=O)CSc1oc(-c2ccccc2)nc1S(=O)(=O)c1ccc(C)cc1 | inconclusive: -1.63% [signal inhibitor] | 
Cc1ccc2nc(-c3cccnc3)c(Nc3ccc(C(C)C)cc3)n2c1 | inactive: 2.51% | 

SMILES | IkBa stabilization activation | Potency
S=c1nc(-c2nc(=S)[nH]c3c2CCCCCCCCCC3)c2c([nH]1)CCCCCCCCCC2 | inactive: 2.3% [at 11.4 µM, scaled: untreated 0%, proteasome inhibitor 100%] | 
O=C(NCCc1ccc(Cl)cc1)C1COc2ccccc2C1 (centres undefined) | inconclusive: -1.89% [signal inhibitor] | 
O=C(c1ccc(F)cc1)n1nc(-c2cccnc2)nc1NCc1ccc(F)cc1 | inconclusive: 1.2% [signal inhibitor] | 
Cc1nc(-c2ccc(S(=O)(=O)N3CCN(c4cc(Cl)ccc4C)CC3)cc2)co1 | inconclusive: 0.432% [signal inhibitor] | 
Cn1cccc1-c1nc2ccccc2n1Cc1ccccc1 | inactive: 4.36% | 
COc1cc([C@H](O)CO)ccc1O | inactive: -2.33% | 
CC(C)(C)c1cc(O)c(C(C)(C)C)cc1O | inactive: 1.04% | 
Cc1ccc(S(=O)(=O)c2nc(-c3cccs3)oc2SC(C)C)cc1 | inconclusive: 3.37% [signal inhibitor] | 
O=C(CSc1nnc(-c2ccccc2F)o1)Nc1ccccc1Cl | inactive: 7.69% | 
CCCc1nnc(NC(=O)CN2C(=O)c3ccccc3S2(=O)=O)s1 |  | inconclusive: 31.6 µM [signal inhibitor, single point]
COc1cc(NC(=O)N2CCC3(CC2)Nc2ccccc2-n2cccc23)cc(OC)c1OC | inconclusive: 0.267% [signal inhibitor] | 
CCOc1ccc(NC(=O)Cn2nnc(C(=O)NCCc3ccccc3)c2N)cc1 | inactive: -0.794% | 
Cc1nc(SCC(=O)NCc2ccco2)c2c(C)c(C)sc2n1 | inconclusive: 2.21% [signal inhibitor] | 
COc1ccc(-c2noc(-c3ccc(NCC4CCCO4)c([N+](=O)[O-])c3)n2)cc1 (centres undefined) | inactive: -2.25% | 
COc1ccccc1C(=O)Nc1ccc2c(c1)OCCO2 | inactive: 6.67% | 
Cc1cccc(-c2nc(CN3CCCC(C(=O)NC4CCCCCC4)C3)c(C)o2)c1 (centres undefined) | inactive: -2.82% | 
Cc1cc(C)c(NC(=O)CCCn2c(C)c3cnn(-c4ccccc4)c(=O)c3c2C)c(C)c1 | inconclusive: 2.05% [signal inhibitor] | 
CC(C)CC(=O)Nc1nnc(SCc2cc(=O)n3ccccc3n2)s1 | inconclusive: -0.231% [signal inhibitor] | 
COC(=O)c1sccc1NC(=O)c1ccco1 | inactive: -0.187% | 
COC(=O)N1CCC2(CCCN(c3ncccn3)C2)CC1 | inactive: 3.46% [at 11.4 µM, scaled: untreated 0%, proteasome inhibitor 100%] | 
CCN(CC)S(=O)(=O)c1ccc2[nH]cc(C(=O)NCCc3ccccc3)c(=O)c2c1 | inconclusive: 2.84% [signal inhibitor] | 
COc1cccc2cc(-c3nc(-c4cccs4)cs3)c(=O)oc12 |  | inconclusive: 6.31 µM [signal inhibitor, partial curve]
CC(=O)C1=C(c2ccc(Br)cc2)N(C(C)=O)n2c(nnc2C2CCCCC2)S1 | inconclusive: 1.53% [signal inhibitor] | 
